Reference: PubChem BioAssay AID624296 (National Center for Advancing Translational Sciences (NCATS), 2012)
Several values for one entry are separate records, joined by “and”; a condition that tells them apart may be missing. Equal entries are not always repeated. Among all 350,000 compounds or so, about 9,900 (2.8%) were called active. The shares of active, inactive and inconclusive entries below differ from those in the screen. Calls follow the shape of the dose curve; as a rule, active = well fitted activation curve with a large enough effect; inconclusive = small, poorly fitted or top-dose-only effect; inactive = no such curve, though single readings can be large or run the other way. Potencies beside an inconclusive call are fits to weak or partial responses and may not hold up.

assay: A quantitative high throughput screen for small molecules that induce DNA re-replication in MCF 10a normal breast cells.; also: nearly all actives have a fitted effect of over 50% in size; as to activity, positive = re-replication: % of control where 0% means no effect; details: MCF 10A DNA re-replication, Hoechst nuclear intensity, 48 h; activity, positive = re-replication: at 46.1 µM (top of the series)
Potency is read from the fitted curve at half-maximal effect; tags tell the direction and shape of the fitted curve.

Q: With `O=C(NCCN1CCN(C(=O)c2ccc(F)cc2)CC1)C(=O)NCc1ccccc1` as the molecule, how does the “activity, positive = re-replication” value read?
A: inactive: -3.07%

Q: For `COC(=O)C1=C(C)N(c2ccc(F)cc2)/C(=C/c2ccc(O)cc2)C1=O`, which activity, positive = re-replication is on record?
A: inactive: -8.41% [at 9.22 µM]

Q: Which Potency does the source give for `CC(C)NC(=O)Nc1ccc2c(c1)C(=O)N([C@H](C)CO)C[C@H](C)[C@@H](CN(C)C(=O)Nc1ccc(C(F)(F)F)cc1)O2` here?
A: inconclusive: 6.51 µM [activator, single point]

Q: For `N=C1/C(=C\c2ccc(SCc3ccccc3)o2)C(=O)N=C2SC(CC(=O)N3CCOCC3)=NN12`, which Potency is on record?
A: inconclusive: 25.9 µM [activator, single point]

Q: With `COc1ccc(CCNC(=O)CCCn2ncn3c(cc4occc43)c2=O)c(OC)c1` as the molecule, how does the Potency read?
A: inconclusive: 18.4 µM [activator, partial curve, poor fit]

Q: Which Potency does the source give for `NS(=O)(=O)c1ccc(NC(=S)Nc2ccc(Br)c(Cl)c2)cc1` here?
A: inconclusive: 29.1 µM [activator, partial curve, poor fit]

Q: For `COc1ccc(CNC(=O)COc2ccc(S(=O)(=O)N3CCCCC3)cc2)cc1`, which Potency is on record?
A: inconclusive: 25.9 µM [activator, partial curve, poor fit]

Q: Which Potency does the source give for `CC1CCCC(C)N1CCOc1cc(N)ccc1C#N` (configuration not stated) here?
A: inconclusive: 2.06 µM [activator, full curve]

Q: For `O=C(N/N=C\c1c(O)ccc2ccccc12)c1cncc(Br)c1`, which Potency is on record?
A: active: 14.6 µM

Q: For `CCOc1ccc(OCC(O)CNC2CCN(Cc3ccccc3)CC2)cc1` (configuration not stated), which Potency is on record?
A: inconclusive: 20.6 µM [activator, partial curve, poor fit]

Q: For `CCCCS(=O)(=O)N1CCCC(C(=O)NCC2CCCO2)C1` (configuration not stated), which Potency is on record?
A: inconclusive: 6.51 µM [activator, single point]

Q: For `COc1ccccc1NC(=O)C1CCCN(c2ncnc3c2nc2n3CCCCC2)C1` (configuration not stated), which “activity, positive = re-replication” value is on record?
A: inactive: 0.961%

Q: Which Potency does the source give for `COc1ccc(-c2sc(Nc3ccccc3)n[n+]2-c2ccccc2)cc1Br` here?
A: inconclusive: 25.9 µM [activator, single point]

Q: With `CC(/C=C1\SC(=S)N(CC(=O)O)C1=O)=C\c1ccccc1` as the molecule, how does the Potency read?
A: inconclusive: 23.1 µM [activator, single point] and inconclusive: 33.5 µM [activator, partial curve, poor fit]

Q: Which “activity, positive = re-replication” value does the source give for `COc1cc(C(=O)NC(=S)NC(C)C)cc(OC)c1OC` here?
A: inactive: 0.188%

Q: Which “activity, positive = re-replication” value does the source give for `C/C(=N\O)C(C)(C)Nc1cccc(F)c1` here?
A: inactive: 6.64%

Q: Which “activity, positive = re-replication” value does the source give for `O=C(NC(=O)c1ccccc1)OCCN1C(=O)c2ccccc2C1=O` here?
A: inactive: -8.93%

Q: For `O=C(Nc1ccc(C(F)(F)F)cc1)C1CCCN1S(=O)(=O)c1cccc2cccnc12` (configuration not stated), which “activity, positive = re-replication” value is on record?
A: inactive: 17.7%

Q: Which Potency does the source give for `CCOCCCNCc1ccc(OCc2ccccc2Cl)cc1` here?
A: inconclusive: 10.3 µM [activator, partial curve]

Q: Which Potency does the source give for `C#CCN1Cc2ccccc2Oc2cc(Br)ccc2S1(=O)=O` here?
A: inconclusive: 25.9 µM [activator, single point]

Q: For `CCC(=O)N1c2ccc(S(=O)(=O)CCC(=O)N3CCN(c4ccccc4F)CC3)cc2CC1C` (configuration not stated), which “activity, positive = re-replication” value is on record?
A: inactive: -7.32%

Q: For `CCCC(=O)O[C@H]1C[C@@H](C)N(C(=O)c2ccccc2)c2ccc(C)cc21`, which Potency is on record?
A: inconclusive: 29.1 µM [activator, partial curve, poor fit]

Q: Which Potency does the source give for `Cc1ccc(C)c(NC(=S)N(Cc2ccc(Cl)cc2)Cc2ccc(C(=O)O)cc2)c1` here?
A: inconclusive: 18.4 µM [activator, single point]

Q: Which “activity, positive = re-replication” value does the source give for `COc1ccc(NS(=O)(=O)c2ccc3nc(COc4ccc5ccccc5c4)[nH]c3c2)cc1` here?
A: inactive: 12.2%

Q: Which Potency does the source give for `COCC(C)n1c(SCc2ccc(C(=O)OC)o2)nc2ccccc2c1=O` (configuration not stated) here?
A: inconclusive: 25.9 µM [activator, single point]

Q: Which Potency does the source give for `Cc1onc(-c2ccccc2)c1C(=O)N1CCN(S(=O)(=O)c2ccccc2Br)CC1` here?
A: inconclusive: 3.66 µM [activator, single point]

Q: With `CCn1cc(CN2CCN(Cc3ccc(OC)c(C)c3C)C(CCO)C2)c(C)n1` (configuration not stated) as the molecule, how does the Potency read?
A: inconclusive: 11.6 µM [activator, partial curve, poor fit]

Q: With `Cc1cc(C)n(-c2nnc(C)n2/N=C/c2cc(Br)ccc2OCc2ccccc2)n1` as the molecule, how does the Potency read?
A: inconclusive: 20.6 µM [activator, single point]

Q: For `COC(=O)c1cc(NC(=O)c2cc(C(C)(C)C)nn2Cc2cccc(C)c2)ccc1N1CCOCC1`, which Potency is on record?
A: inconclusive: 20.6 µM [activator, single point]

Q: With `O=C(CCc1ccccc1)Nc1ccc(S(=O)(=O)N2CCOCC2)cc1` as the molecule, how does the Potency read?
A: inconclusive: 29.1 µM [activator, single point]

Q: Which Potency does the source give for `COc1ccc(-c2nnn(CC(=O)Nc3ccc4c(c3)OCCO4)n2)cc1OC` here?
A: inconclusive: 0.58 µM [activator, single point]

Q: With `COc1ccc(-c2nc(CSCC(=O)NCc3ccc4c(c3)OCO4)c(C)o2)cc1` as the molecule, how does the “activity, positive = re-replication” value read?
A: inactive: 1.43%

Q: With `CC(=O)N1c2ccccc2C(C)CC12CCCCC2` (configuration not stated) as the molecule, how does the Potency read?
A: inconclusive: 17.8 µM [activator, partial curve, poor fit]

Q: For `O=C(c1ccc(COc2ccccc2Cl)o1)N1CCN(Cc2ccc3c(c2)OCO3)CC1`, which Potency is on record?
A: inconclusive: 25.9 µM [activator, partial curve, poor fit] and inconclusive: 23.1 µM [activator, single point]

Q: For `COc1ccc(C/C(N)=N/OC(=O)c2ccc(Cl)cc2)cc1`, which “activity, positive = re-replication” value is on record?
A: inactive: -2.6%

Q: Which Potency does the source give for `CCc1ccccc1NC(=O)CSC1=C(C#N)C(c2ccc(O)c(OC)c2)C2=C(CCCC2=O)N1` (configuration not stated) here?
A: active: 16.4 µM

Q: With `COc1ccccc1NC(=O)c1cc(C(=O)Nc2ccccc2OC)cc([N+](=O)[O-])c1` as the molecule, how does the Potency read?
A: inconclusive: 2.31 µM [activator, partial curve, poor fit]

Q: With `CN1/C(=C\C(=O)c2ccco2)C(C)(C)c2ccccc21` as the molecule, how does the Potency read?
A: inconclusive: 4.61 µM [activator, partial curve, poor fit]

Q: Which “activity, positive = re-replication” value does the source give for `CCN(CC)S(=O)(=O)c1ccccc1/C=N\O` here?
A: inactive: -3.63%

Q: With `CCc1cccc(NC(=O)CSC2=NS(=O)(=O)c3ccccc32)c1` as the molecule, how does the Potency read?
A: inconclusive: 7.31 µM [activator, partial curve, poor fit]

Q: With `COc1ccccc1NC(=O)CCc1nnc2ccc(N3CCC4(CC3)OCCO4)nn12` as the molecule, how does the “activity, positive = re-replication” value read?
A: inactive: -4.42%

Q: Which “activity, positive = re-replication” value does the source give for `CC(C)(CCc1ccccn1)C(=O)C(CCc1ccccn1)CCc1ccccn1` here?
A: inactive: 0.295%

Q: For `CC(C)CC(=O)OC1C(N2CCOCC2)c2c(ccc(/C=C/C(=O)N3CCOCC3)c2O)OC1(C)C` (configuration not stated), which “activity, positive = re-replication” value is on record?
A: inactive: 13.6%

Q: Which Potency does the source give for `CCOC(=O)c1c(NC(=O)Nc2ccc(Cl)cc2)sc(C)c1C` here?
A: inconclusive: 5.62 µM [activator, partial curve, poor fit]

Q: Which “activity, positive = re-replication” value does the source give for `O=C(CCNC(=O)c1ccccc1Cl)NCc1cccnc1` here?
A: inactive: -0.336%

Q: With `COC(=O)/C(=C\c1cc(OC)c(OC)c(OC)c1)c1nc2ccccc2[nH]1` as the molecule, how does the Potency read?
A: active: 20.6 µM

Q: Which Potency does the source give for `c1ccc(CNc2nc(NCc3ccccc3)c3ccccc3n2)cc1` here?
A: inconclusive: 20.6 µM [activator, single point]

Q: With `Cc1ccc(C)c(N2CCN(c3ncccc3[N+](=O)[O-])CC2)c1` as the molecule, how does the Potency read?
A: inconclusive: 14.6 µM [activator, partial curve]

Q: For `Cc1cccc(NC2=C(Cl)C(=O)OC2OC(C)C)c1` (configuration not stated), which “activity, positive = re-replication” value is on record?
A: inactive: -1.04%

Q: Which Potency does the source give for `Fc1ccccc1-c1nc(NCc2ccccc2)c2ccccc2n1` here?
A: inconclusive: 29.1 µM [activator, partial curve, poor fit]

Q: Which “activity, positive = re-replication” value does the source give for `CCOC(=O)C1CCN(C(=O)c2cccc(NS(=O)(=O)c3ccc(F)c(F)c3)c2)CC1` here?
A: inactive: -4.25%

Q: With `COc1ccc(N(C(=O)c2cnccn2)C(C(=O)NC2CCCCC2)c2ccc(Cl)cc2)cc1` (configuration not stated) as the molecule, how does the “activity, positive = re-replication” value read?
A: inactive: 2.28%

Q: With `O=C1CC(=C(c2ccccc2)c2ccccc2)C(=O)N1CCCCN1CCN(c2ccccc2)CC1` as the molecule, how does the Potency read?
A: inconclusive: 20.6 µM [activator, single point]

Q: Which Potency does the source give for `CCN(CC(=O)Nc1cccc(OC)c1)CC(=O)Nc1ccc(Br)c(C)c1` here?
A: inconclusive: 23.1 µM [activator, single point]

Q: Which “activity, positive = re-replication” value does the source give for `Cc1ccc(C(=O)Cn2ncsc2=N)cc1` here?
A: inactive: -0.676%

Q: Which Potency does the source give for `Cc1ccc(-c2nc3ccc(Cl)cc3c(=O)n2O)cc1` here?
A: inconclusive: 14.6 µM [activator, single point]

Q: For `Nc1nc(=S)c2[nH]cnc2[nH]1`, which Potency is on record?
A: inconclusive: 1.3 µM [activator, partial curve, poor fit]

Q: With `O=C(c1ccco1)N1CCN(c2ncnc3sc4c(c23)CCC4)CC1` as the molecule, how does the “activity, positive = re-replication” value read?
A: inactive: 8.93%

Q: Which Potency does the source give for `CCOC(=O)Nc1ccc2c(c1)N(C(=O)CN(CC)CC)c1ccccc1C=C2` here?
A: active: 11.6 µM

Q: With `O=C(Nc1ccc(N2CCN(C(=O)c3cccs3)CC2)cc1)c1cccc(F)c1` as the molecule, how does the Potency read?
A: inconclusive: 29.1 µM [activator, single point]

Q: With `Cc1ccc(NC(=O)CNC(=O)c2sc3ccccc3c2Cl)nc1` as the molecule, how does the Potency read?
A: inconclusive: 18.4 µM [activator, single point]

Q: For `C=CCNc1nc(-c2ccccn2)nnc1-c1ccccc1`, which Potency is on record?
A: inconclusive: 29.1 µM [activator, single point]

Q: For `O=C(Nc1cccc(C(F)(F)F)c1)c1csc(-c2ccncc2)n1`, which Potency is on record?
A: inconclusive: 2.91 µM [activator, full curve, poor fit]

Q: With `CCCN(CC(=O)Nc1cc(Cl)ccc1Cl)C(=O)c1ccc2n[nH]nc2c1` as the molecule, how does the Potency read?
A: inconclusive: 23.1 µM [activator, single point]

Q: For `Nc1ccccc1Nc1cc(-c2ccccc2)nn1-c1cccc(Cl)c1`, which Potency is on record?
A: inconclusive: 18.4 µM [activator, single point]

Q: Which Potency does the source give for `Cc1ccc(C(=O)Nc2ccc(OCc3ccccc3)cc2)s1` here?
A: inconclusive: 29.1 µM [activator, single point]

Q: Which “activity, positive = re-replication” value does the source give for `NC(=O)Cc1ccc(C(=O)CSc2nnc(-c3ccncc3)n2C2CC2)s1` here?
A: inactive: -6%
